# Laboratory results reported in the supplement of paper PMC11417369.
# ± gives the standard deviation of the averaged measurements. This is one part of the list.
# Test system: PfAP2-I AP2 domain 3 (GST-tagged)
# Assay: gcPBM binding intensity (ln(normalized median fluorescence intensity)); higher = stronger DNA binding
# Procedure, shortened: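 Binding intensity values are the highest Masliner-normalised natural-log median intensity among replicate spots of either probe orientation. The binding step lasted 1 h in 1× PBS with 1% milk, 0.2 mg/ml BSA, 0.5% salmon testes DNA and 0.03% Triton X-100, using GST-tagged P. falciparum DNA-binding domains expressed in E. coli on an Agilent 4 × 180k array of primer-extended double-stranded 36-bp intergenic genomic probes plus negative controls. Alexa488 anti-GST antibody and a 488 nm scan detected bound protein.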
row,Sequence,gcPBM binding intensity (ln)
1,CACAAAAATAGACACACACACATATAGATTTATTAT [CACACA_site7676],7.79 ± 0.37
2,TTATGGTTTAAATAAAGTACAAATAAATAAATATAT [XGTACX_site5777],7.88 ± 0.59
3,ATACACATATGTTAATGTACACATATATAATATTTA [XGTACX_site163],7.89 ± 0.4
4,TTTCTTAAATATATTGAGGAATAAAAAGAAGAAAAG [GTGCAC_negctrl_site281],7.74 ± 0.49
5,TTATGAAAAATAAAATTAGAAAAAAAGGAAAATGAA [XGTACX_negctrl_site232],7.73 ± 0.65
6,AGGTTACATAGATTTTGTACATATATATTATTTTTT [XGTACX_site3040],7.66 ± 0.59
7,AAAAAATTATAAAAGTGTACATATATATATATATAT [XGTACX_site154],9.42 ± 0.4
8,GTTCATACTTAATATTGTACTTTTCATGTAGTGTAT [XGTACX_site6613],7.85 ± 0.55
9,TACAAATATATATGCACACACATATACATACATATA [CACACA_site2182],9.39 ± 0.39
10,TATTAGATATAATATATACACACCAACGAACGAAGA [CACACA_site1134],8.2 ± 0.52
11,AAATAAATATTTATATGTACATATATTTTATAATAC [XGTACX_site7041],7.8 ± 0.36
12,TAACATATTTTTAATACACACTCAAAAAAGTACTTA [CACACA_site5638],7.92 ± 0.28
13,TTCATTCAAATTAACGTGCACATTATTAGTAAAAAC,11.05 ± 0.035
14,TTATATAATTTAATAGTGCAATTATATTAATTTTTC,9.82 ± 0.42
15,TATACCTATAGACACACACACATATAGATTTATATA [CACACA_site7124],7.85 ± 0.38
16,CGCATACACAGACACACACACACATATAAATATGTA [CACACA_site6444],8.03 ± 0.35
17,AATTTTTTATTAAACACACAAACATATATATATATA [CACACA_site1937],9.23 ± 0.13
18,GAAATTATGTAAAAAAGTACTAACATACATATATAT [XGTACX_site1794],7.77 ± 0.68
19,GAAAACGTCTTTAATAGTACACAGTTAAAAAATACA [XGTACX_site8976],7.63 ± 0.57
20,TTTTTTCATTATATATAGTATGCAAGTCAAATTAAT [GTGCAC_negctrl_site207],7.78 ± 0.54
21,TATATATATATATAAAGTACATATAATATATATTTG [XGTACX_site5412],9.27 ± 0.38
22,ACAAAATTTACAAAATGTACAAAATTTACAAAATAT [XGTACX_site3542],7.53 ± 0.52
23,CTATAAAAATATAATTGTACAAATTTTTATATCTTA [XGTACX_site7722],7.49 ± 0.39
24,AAAAAAAAAAAAAACATACACACATTGAACTTTTAT [CACACA_site3251],8.18 ± 0.54
25,TTTTTGTGCATTGATTGTACTTTCTAGGATTATTAA [XGTACX_site7070],10.16 ± 0.049
